# According to PubChem BioAssay (Tox21):
# Where “and” joins values, the source holds several entries; their conditions need not be identical. Equal values may be shown once. Inconclusive means that the source gave no clear call. Such entries were picked first, then a sample of the others. For some of these results: Potencies beside an inconclusive call are fits to weak or partial responses and may not hold up. A structure can be active in one record and inactive in another. Calls of active or inactive are those of the source. Calls come from the whole dose curve; as a rule, active = well fitted curve in the direction sought with a large enough effect in the repeat runs; inconclusive = weak or mixed curves; inactive = no such curve, though single readings can be large; an effect the other way counts as inactive or inconclusive.
# What was measured:
# [1] = A CellTox Green Cytotoxicity Assay to monitor cytotoxicity in HepG2 cells - 32 hour (AID 1224883); note: nearly all actives have a fitted effect of over 50% in size; for cytotoxicity increase: % is set by controls: 0 for no effect and ±100 for the full control effect
# In short: (§1)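 Read-out is fluorescence of a cyanine dye excluded from live cells that stains DNA of dead HepG2 cells, with signal proportional to cytotoxicity. Plates were read at 0, 8, 16, 24, 32 and 40 h after compound addition.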
# [2] = qHTS RealTime-Glo MT Cell Viability Assay in HEK293 cells - 24 hour (AID 1224886); note: nearly all actives have a fitted effect of over 50% in size
# In short: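 Cells + reagent dispensed (600 cells/well, HEK293) → 5 h at 37 C/5% CO2 → 23 nL compound in DMSO pinned → 40 h at 37 C → luminescence read at 0, 8, 16, 24, 32, 40 h.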
# [3] = qHTS assay to identify small molecule antagonists of the estrogen receptor alpha (ER-alpha) signaling pathway using the BG1 cell line in the presence of 0.1 nM 17-beta-estradiol - cell viability counter screen (AID 1259241); note: nearly all actives have a fitted effect of over 40% in size
# In short: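 Viability in VM7Luc4E2 cells after 22 hr compound exposure under 0.1 nM 17beta-estradiol stimulation, by CellTiter-Fluor.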
# [4] = qHTS RealTime-Glo MT Cell Viability Assay in HepG2 cells - 16 hour (AID 1224885); note: nearly all actives have a fitted effect of over 50% in size
# In short: (§2)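 Real-time, nonlytic viability: 600 HepG2 cells/well mixed with NanoLuc enzyme plus prosubstrate; 5 h settle, compound (DMSO) added by pintool; luminescence monitored over 40 h at 37 C.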
# [5] = qHTS RealTime-Glo MT Cell Viability Assay in HEK293 cells - 8 hour (AID 1224887); note: nearly all actives have a fitted effect of over 50% in size
# In short: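 Cells were seeded together with NanoLuc luciferase and a prosubstrate that viable cells reduce to a luciferase substrate. After a 5 h incubation at 37 C/5% CO2, compounds were added and luminescence was measured repeatedly during 40 h of treatment.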
# [6] = A CellTox Green Cytotoxicity Assay to monitor cytotoxicity in HEK293 cells - 16 hour (AID 1224888); note: nearly all actives have a fitted effect of over 35% in size
# In short: (§3)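 Nonlytic real-time cytotoxicity: HEK293 + CellTox Green reagent plated, 5 h preincubation, pintool compound addition (23 nL in DMSO), 37 C for 40 h, fluorescence measured at successive time points.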
# [7] = A CellTox Green Cytotoxicity Assay to monitor cytotoxicity in HepG2 cells - 8 hour (AID 1224890); note: nearly all actives have a fitted effect of over 45% in size
# In short: as §1
# [8] = qHTS RealTime-Glo MT Cell Viability Assay in HepG2 cells - 0 hour (AID 1224889); note: nearly all actives have a fitted effect of over 50% in size
# In short: as §2
# [9] = A CellTox Green Cytotoxicity Assay to monitor cytotoxicity in HEK293 cells - 8 hour (AID 1224884); note: nearly all actives have a fitted effect of over 35% in size
# In short: as §3
# Potency is the fitted concentration of half-maximal effect; tags give direction and shape of the fitted curve.
smiles,measurement,setting,value
COc1ccccc1OCCNCC(O)COc1cccc2[nH]c3ccccc3c12 (stereo not given),Potency,[1],active: 23.9 µM
same,Potency,[2],active: 10.7 µM
same,Potency,[3],"inconclusive: 11.9 µM [cytotoxic, partial curve, poor fit]"
O=C(OC[C@H]1O[C@@H](OC(=O)c2cc(O)c(O)c(OC(=O)c3cc(O)c(O)c(O)c3)c2)[C@H](OC(=O)c2cc(O)c(O)c(OC(=O)c3cc(O)c(O)c(O)c3)c2)[C@@H](OC(=O)c2cc(O)c(O)c(OC(=O)c3cc(O)c(O)c(O)c3)c2)[C@@H]1OC(=O)c1cc(O)c(O)c(OC(=O)c2cc(O)c(O)c(O)c2)c1)c1cc(O)c(O)c(OC(=O)c2cc(O)c(O)c(O)c2)c1,cytotoxicity increase,[1],inactive: -61.4% [at 15.8 µM]
same,Potency,[4],"inconclusive: 11.8 µM [cytotoxic, partial curve]"
same,Potency,[3],inconclusive: 16.5 µM [cytotoxic]
c1ccc2c(c1)CCc1ccccc1N2,Potency,[1],"inconclusive: 49.2 µM [activator, single point]"
same,Potency,[2],"inconclusive: 43.9 µM [cytotoxic, partial curve]"
same,Potency,[5],"inconclusive: 39.1 µM [cytotoxic, partial curve]"
same,Potency,[6],"inconclusive: 55.2 µM [activator, partial curve, poor fit]"
CCCCCCCCCCCC(=O)NCCCN(C)C,Potency,[1],active: 24.5 µM
same,Potency,[2],active: 43.6 µM
same,Potency,[6],active: 54.9 µM
same,Potency,[3],"inconclusive: 27.3 µM [cytotoxic, single point]"
CC(C)(c1ccc(O)cc1)c1ccc(O)cc1,Potency,[1],inconclusive: 55.9 µM [activator]
same,Potency,[2],"inconclusive: 48.4 µM [cytotoxic, partial curve] and inconclusive: 19.8 µM [cytotoxic, full curve]"
same,Potency,[5],"inconclusive: 44.4 µM [cytotoxic, partial curve]"
same,Potency,[7],"inconclusive: 62.8 µM [activator, partial curve, poor fit]"
same,Potency,[3],"inconclusive: 69.8 µM [cytotoxic, single point]"
CS(=O)(=O)CCNCc1ccc(-c2ccc3ncnc(Nc4ccc(OCc5cccc(F)c5)c(Cl)c4)c3c2)o1,Potency,[1],"inconclusive: 26.8 µM [activator, single point]"
same,Potency,[4],active: 21.3 µM
same,Potency,[8],active: 8.49 µM
same,Potency,[3],"inconclusive: 26.6 µM [cytotoxic, partial curve, poor fit]"
Cc1cc(O)c(C(C)(C)C)cc1Sc1cc(C(C)(C)C)c(O)cc1C,Potency,[1],active: 61.5 µM
same,Potency,[2],active: 21.8 µM
same,Potency,[3],"inconclusive: 68.5 µM [cytotoxic, single point]"
CC(C)(C)c1cc(/C=C2\SC(=N)NC2=O)cc(C(C)(C)C)c1O,Potency,[1],active: 43.6 µM
same,Potency,[4],"inconclusive: 43.6 µM [cytotoxic, partial curve]"
same,Potency,[5],"inconclusive: 43.6 µM [cytotoxic, partial curve]"
same,Potency,[6],"inconclusive: 54.9 µM [activator, partial curve, poor fit]"
same,Potency,[7],active: 49 µM
O=C1NCN(c2ccccc2)C12CCN(CCCC(c1ccc(F)cc1)c1ccc(F)cc1)CC2,Potency,[1],active: 6.74 µM
same,Potency,[2],active: 19 µM
same,Potency,[5],"inconclusive: 23.9 µM [cytotoxic, partial curve]"
same,Potency,[6],"inconclusive: 26.8 µM [activator, single point]"
same,Potency,[3],active: 13.3 µM
Cc1cc(Br)ccc1NC(=O)CCl,Potency,[1],"inconclusive: 54.9 µM [activator, single point]"
same,Potency,[4],"inconclusive: 19.5 µM [cytotoxic, partial curve]"
same,Potency,[3],active: 61.1 µM
OCCO,Potency,[1],inactive
same,Potency,[6],"inconclusive: 60 µM [activator, single point]"
CCc1cccc(C)c1N,Potency,[1],inactive
same,Potency,[2],inactive
CCCCCCCC/C=C\CCCCCCCC(=O)N(CCO)CCO,Potency,[1],"inconclusive: 54.7 µM [activator, single point]"
same,Potency,[2],active: 43.5 µM
same,Potency,[5],active: 43.5 µM
same,Potency,[6],"inconclusive: 9.74 µM [activator, single point]"
COc1ccc(-n2nc(CCC(=O)N(C)O)cc2-c2ccc(Cl)cc2)cc1,Potency,[1],"inconclusive: 26.8 µM [activator, single point]"
same,Potency,[2],"inconclusive: 23.9 µM [cytotoxic, single point]"
same,Potency,[8],"inconclusive: 23.9 µM [cytotoxic, single point]"
O=c1cc(-c2ccccc2)oc2ccccc12,Potency,[1],active: 48.7 µM
same,Potency,[2],active: 17.4 µM and active: 7.71 µM
same,Potency,[6],"inconclusive: 21.7 µM [activator, single point]"
Cc1c2ccccc2c(C)c2c1ccc1ccccc12,Potency,[1],"inconclusive: 54.9 µM [activator, single point]"
same,Potency,[4],"inconclusive: 43.6 µM [cytotoxic, partial curve, poor fit]"
same,Potency,[5],"inconclusive: 38.5 µM [cytotoxic, partial curve] and inconclusive: 17.4 µM [cytotoxic, full curve]"
same,Potency,[6],"inconclusive: 54.9 µM [activator, partial curve, poor fit]"
same,Potency,[8],inactive
C=CC(=O)OCC(CO)(COCC(COC(=O)C=C)(COC(=O)C=C)COC(=O)C=C)COC(=O)C=C,Potency,[1],active: 21.6 µM
same,Potency,[2],"inconclusive: 0.153 µM [rising, full curve]"
same,Potency,[5],"inconclusive: 48.4 µM [cytotoxic, partial curve, poor fit]"
same,Potency,[6],"inconclusive: 54.3 µM [activator, single point]"
same,Potency,[3],active: 15.2 µM
CCCCCCC(C)OC(=O)COc1nc(F)c(Cl)c(N)c1Cl (stereo not given),Potency,[1],"inconclusive: 54.9 µM [activator, single point]"
same,Potency,[2],"inconclusive: 43.6 µM [cytotoxic, partial curve, poor fit]"
same,Potency,[5],"inconclusive: 49 µM [cytotoxic, partial curve, poor fit]"
Cc1cc(O)c(C(C)C)cc1Cl,Potency,[1],"inconclusive: 23.9 µM [activator, partial curve, poor fit]"
same,Potency,[4],"inconclusive: 54.9 µM [cytotoxic, partial curve, poor fit]"
same,Potency,[5],"inconclusive: 43.6 µM [cytotoxic, partial curve]"
same,Potency,[7],"inconclusive: 26.8 µM [activator, single point]"
CC1=C(/C=C/C(C)=C/C=C/C(C)=C\C(=O)O)C(C)(C)CCC1,Potency,[1],"inconclusive: 49.1 µM [activator, single point]"
same,Potency,[2],"inconclusive: 12.3 µM [cytotoxic, single point]"
Cc1cc(Cc2ccc(N)c(C)c2)ccc1N,Potency,[1],"inconclusive: 21.9 µM [activator, single point]"
same,Potency,[2],"inconclusive: 17.4 µM [cytotoxic, partial curve, poor fit]"
CC(C)c1ccc(S(=O)(=O)O)cc1,Potency,[1],inactive
same,Potency,[5],inactive
COC(=O)C1=C(C)NC(C)=C(C(=O)OC)C1c1ccccc1[N+](=O)[O-],Potency,[4],"inconclusive: 43.7 µM [cytotoxic, partial curve] and inconclusive: 16.9 µM [cytotoxic, partial curve]"
same,Potency,[2],"inconclusive: 49 µM [cytotoxic, partial curve]"
same,Potency,[5],"inconclusive: 49 µM [cytotoxic, partial curve]"
same,Potency,[6],"inconclusive: 0.239 µM [activator, single point]"
same,Potency,[8],"inconclusive: 43.7 µM [cytotoxic, partial curve] and inconclusive: 26.8 µM [cytotoxic, single point]"
same,Potency,[3],"inconclusive: 17.2 µM [cytotoxic, full curve]"
CC1=CC(=O)c2ccccc2C1=O,Potency,[4],"active: 43.6 µM and inconclusive: 26.8 µM [cytotoxic, single point]"
same,Potency,[2],"inconclusive: 26.8 µM [cytotoxic, single point]"
same,Potency,[5],active: 7.76 µM and active: 16.9 µM
same,Potency,[6],active: 21.9 µM and active: 26.8 µM
same,Potency,[8],"inconclusive: 34.7 µM [cytotoxic, partial curve]"
same,Potency,[3],"inconclusive: 33.5 µM [cytotoxic, single point]"
O=C1OC(O)C(C(Cl)Cl)=C1Cl (stereo not given),Potency,[4],"inconclusive: 40.1 µM [cytotoxic, partial curve, poor fit]"
same,Potency,[2],"inconclusive: 63.6 µM [cytotoxic, single point]"
C=CC(=O)OCC(O)COc1ccccc1 (stereo not given),Potency,[4],"inconclusive: 49 µM [cytotoxic, partial curve]"
C=C(c1ccc(C(=O)O)cc1)c1cc2c(cc1C)C(C)(C)CCC2(C)C,Potency,[4],"inconclusive: 49 µM [cytotoxic, partial curve]"
same,Potency,[2],"inconclusive: 34.7 µM [cytotoxic, partial curve] and inconclusive: 23.9 µM [cytotoxic, single point]"
same,Potency,[5],"inconclusive: 34.7 µM [cytotoxic, partial curve, poor fit]"
BrC1CCC(Br)C(Br)CCC(Br)C(Br)CCC1Br (stereo not given),Potency,[4],"inconclusive: 54.7 µM [cytotoxic, partial curve] and inconclusive: 46.5 µM [cytotoxic, single point]"
same,Potency,[2],"inconclusive: 61.4 µM [cytotoxic, single point]"
Cc1cc(Cc2cc(C)cc(C(C)(C)C)c2O)c(O)c(C(C)(C)C)c1,Potency,[9],active: 49.2 µM
same,Potency,[6],"inconclusive: 43.6 µM [activator, partial curve]"
same,Potency,[7],active: 43.9 µM and active: 34.7 µM
same,Potency,[3],"inconclusive: 43.5 µM [cytotoxic, partial curve]"
